According to PubChem BioAssay AID588342 (National Center for Advancing Translational Sciences (NCATS), 2011):
Among all 360,000 compounds or so, about 25,000 (6.9%) were called active. Inconclusive means that the source gave no clear call. Such entries were picked first, then a sample of the others. Calls follow the shape of the dose curve; as a rule, active = well fitted inhibition curve with a large enough effect; inconclusive = small, poorly fitted or top-dose-only effect; inactive = flat fitted curve, though single readings scatter. Potencies of inconclusive entries are doubtful fits and often do not repeat.

Molecular target: Luciferin 4-monooxygenase (Photinus pyralis) (UniProt P08659)
Experiment: qHTS profiling assay for firefly luciferase inhibitor/activator using purifed enzyme and Km concentrations of substrates (counterscreen for miR-21 project); also: nearly all actives have a fitted effect of over 55% in size;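 as to activity change, negative = inhibition: plate controls were vehicle for no effect and reference inhibitor for full effect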
Details: purified FLuc, luminescence inhibition; series mostly up to 57.5 µM; activity change, negative = inhibition: at the top concentration
Procedure, shortened: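 Purified P. pyralis luciferase, 10 nM final, with Km-level 10 uM D-luciferin and 10 uM ATP in 50 mM Tris acetate pH 7.5, 10 mM Mg acetate, 0.01% Tween-20, 0.05% BSA; 6-point qHTS titration about 60 µM downward; luminescence read.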
Potency is read from the fitted curve at half-maximal effect; tags tell the direction and shape of the fitted curve.

UniProt P08659, sequence (P08659 whole entry, looked up): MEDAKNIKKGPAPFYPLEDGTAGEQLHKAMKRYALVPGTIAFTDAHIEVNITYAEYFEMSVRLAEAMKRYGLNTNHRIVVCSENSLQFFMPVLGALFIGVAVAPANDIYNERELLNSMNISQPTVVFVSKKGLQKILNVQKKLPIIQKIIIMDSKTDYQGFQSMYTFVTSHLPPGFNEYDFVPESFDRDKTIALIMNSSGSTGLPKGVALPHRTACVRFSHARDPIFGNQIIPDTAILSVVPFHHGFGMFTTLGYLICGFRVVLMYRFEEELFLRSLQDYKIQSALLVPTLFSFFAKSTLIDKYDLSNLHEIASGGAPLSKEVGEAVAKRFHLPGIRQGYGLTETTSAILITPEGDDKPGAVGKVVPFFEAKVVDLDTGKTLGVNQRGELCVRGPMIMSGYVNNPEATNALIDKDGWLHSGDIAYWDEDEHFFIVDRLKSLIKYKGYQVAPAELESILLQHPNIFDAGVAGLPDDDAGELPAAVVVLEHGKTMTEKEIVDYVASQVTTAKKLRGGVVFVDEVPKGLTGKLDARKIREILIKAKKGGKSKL

Compound	Potency	activity change, negative = inhibition
O=C1/C(=C/c2cccnc2)CCc2c1[nH]c1ccccc21	active: 9.53 µM	
CCOC(=O)c1cn(CC)c2ccc(Br)cc2c1=O		inactive: 2.54%
COc1cccc(C(=O)Nc2ccc(Cl)c(C(F)(F)F)c2)c1	active: 21.3 µM	
COc1cccc(C2CC(=O)N3CN(c4cccc(Cl)c4C)CSC3=C2C#N)c1OC (stereo unspecified)	inconclusive: 16.9 µM [inhibitor, partial curve]	
Cc1ccc(NC(=O)C(c2ccccc2)N2CCN(CC(=O)NC3CC3)CC2)cc1 (stereo unspecified)	inconclusive: 10.7 µM [inhibitor, partial curve, poor fit]	
O=C(Nc1ccc(S(=O)(=O)Nc2ncccn2)cc1)c1cccc(S(=O)(=O)N2CCCC2)c1		inactive: 2.86%
COc1ccc(-n2nnc3c(SCC(=O)c4ccccc4)ncnc32)cc1	inconclusive: 9.53 µM [inhibitor, partial curve]	
COc1ccc(C2(CNC(=O)C(=O)Nc3ccc(F)cc3)CCCC2)cc1OC		inactive: -7.82%
O=C(NNc1nc2c(F)cccc2s1)C1COc2ccccc2O1 (stereo unspecified)	inconclusive: 21.3 µM [inhibitor, partial curve, poor fit]	
Cc1ccc(NC(=O)C2CCC(CNS(=O)(=O)c3csc(C(N)=O)c3)CC2)cc1Cl (stereo unspecified)		inactive: -1.2%
COc1cccc(NC(=O)c2cncs2)c1		inactive: -6.42%
COc1ccc(Cl)cc1-n1nnc(-c2nsc(NC(=O)c3ccccc3Cl)n2)c1C	inconclusive: 12 µM [inhibitor, partial curve]	
COc1ccccc1NC(=O)c1ccc(N)cc1	inconclusive: 37.9 µM [inhibitor, partial curve, poor fit]	
CSc1cccc(NC(=O)c2ccc(CN3CCc4ccccc4C3)cc2)c1	inconclusive: 23.9 µM [inhibitor, partial curve]	
CCc1nn(Cc2cc(C)ccc2C)c(=O)c2cc3cc(C)ccc3n12		inactive: -3.5%
CCOc1cc(/C=C2/C(=O)ON=C2C)cc(Br)c1O	active: 21.3 µM	
CC(C)[C@H](NC(=O)c1ccccc1F)C(=O)Nc1nc2c(s1)CCCC2	inconclusive: 16.9 µM [inhibitor, partial curve]	
CCn1cc(C(=O)NCc2ccc(C)cc2)c(=O)c2cc(S(=O)(=O)N(C)C)ccc21		inactive: -1.36%
O=C(CCSc1ccc(Cl)c(Cl)c1)NC12CC3CC(CC(C3)C1)C2	inconclusive: 19 µM [inhibitor, partial curve, poor fit]	
COc1ccc(-c2c(C)nn3c(N)c(-c4ccccc4)cnc23)cc1OC	inconclusive: 30.1 µM [inhibitor, single point]	
Cc1cccc(-c2nc(SCCCOc3ccc(Cl)c(C)c3)n3[nH]c(=O)cc3n2)c1	inconclusive: 2.69 µM [inhibitor, full curve]	
Cc1cc2nc3c(nc2cc1C)C(O)=C3O	inconclusive: 37.9 µM [inhibitor, partial curve, poor fit]	
CCOc1ccccc1NC(=O)N1CCc2ccccc2C1	inconclusive: 23.9 µM [inhibitor, single point]	

Compound	Potency	activity change, negative = inhibition
Cc1nn(C)c(C)c1S(=O)(=O)N1CCC(C(=O)NC2CCCc3ccccc32)CC1 (stereo unspecified)		inactive: 1.72%
CCOc1ccc(NC(=O)c2ccccc2O)cc1	active: 0.536 µM	
Cc1cc(C(=O)COc2ncnc3sccc23)c(C)n1C	active: 16.9 µM	
CCOC(=O)N1CCc2c(sc(NCc3cc(OC)c(OC)cc3OC)c2C(=O)Nc2ccc(OCC)cc2)C1	inconclusive: 15.1 µM [inhibitor, partial curve]	
CCOC(=O)CNC(=O)CSc1nnc(NC(=O)c2ccc3c(c2)OCO3)s1	active: 0.953 µM	
Cc1ccccc1-c1nc(-c2cccnc2)no1	active: 10.7 µM	
COc1cccc(N2CCN(C3C4CC5CC(C4)CC3C5)CC2)c1 (stereo unspecified)	inconclusive: 37.9 µM [inhibitor, single point]	
Oc1cccc(Nc2ncnc3ccccc23)c1	inconclusive: 26.9 µM [inhibitor, partial curve, poor fit]	
Cc1c(C(=O)NCCSCc2c(Cl)cccc2Cl)cccc1[N+](=O)[O-]		inactive: -1.21%
COC(=O)c1sc(NC(=O)c2cc(-c3ccccc3)nc3ccccc23)c(C#N)c1C	inconclusive: 21.3 µM [inhibitor, partial curve]	
O=C(Nc1c[nH]c2c(Cl)cccc2c1=O)N1CCN(c2ccccn2)CC1	inconclusive: 16.9 µM [inhibitor, partial curve]	
C=CCc1cccc(/C=N/NC(=O)c2ccccc2Br)c1O	inconclusive: 19 µM [inhibitor, single point]	
CC(C1CC2CCC1C2)n1c(-c2ccco2)n[nH]c1=S (stereo unspecified)	inconclusive: 30.1 µM [inhibitor, single point]	
O=C(CSc1nnc(-c2ccccc2)o1)N1CCCC1	inconclusive: 37.9 µM [inhibitor, partial curve, poor fit]	
CC(=O)Oc1ccc(C(=O)Nc2ccc3c(c2)C(=O)N(CCC(=O)O)C3=O)cc1	inconclusive: 30.1 µM [inhibitor, partial curve, poor fit]	
CCOC(=O)COn1c(=O)c(-c2cccs2)[n+]([O-])c2ccccc21	inconclusive: 33.8 µM [inhibitor, partial curve, poor fit]	
COc1ccc(NC(=O)CSc2nc3ccccc3n2Cc2cccc(OC)c2)cc1		inactive: -12.4%
CC(=O)Nc1ccc(S(=O)(=O)Nc2nc3ccccc3nc2Nc2ccc(S(N)(=O)=O)cc2)cc1	inconclusive: 21.3 µM [inhibitor, single point]	
O=C(Nn1cnc2ccccc2c1=O)c1cccc(Cl)c1	inconclusive: 26.9 µM [inhibitor, partial curve, poor fit]	
COc1ccc(NC(=O)c2cc(-c3ccc(OC)c(OC)c3)on2)cc1OC		inactive: 0.108%
CCCCSc1nsc(NC(C)=O)n1	active: 10.7 µM	
CCOC(=O)c1sc(Nc2nc3ccc(OC)cc3s2)cc1C	inconclusive: 21.3 µM [inhibitor, single point]	
O=C(O)CCC(=O)N(Cc1ccco1)c1nc(-c2ccccc2)cs1	inconclusive: 30.1 µM [inhibitor, partial curve, poor fit]	
